Over roughly 33,000 sequences, “E-score (dimensionless, -0.5 to 0.5)” has its median near -0.058; the highest 2% begin near 0.35. This is one part of the list.
Each sequence was assayed on MvaT (assay: PBM 8-mer E-score (mean of HK and ME arrays) (E-score (dimensionless, -0.5 to 0.5)); higher = stronger relative binding preference; most listed sequences are background and not binding sites).
Method in brief: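 Full-length P. aeruginosa MvaT, with glutathione S-transferase fused to its N-terminus (cloned into pTH6838 by isothermal assembly), was tested by protein binding microarray using a previously described protocol. Two universal double-stranded 60-mer arrays (ME and HK) were used, each with a constant 25-mer primer region and a variable 35-mer region covering all 8-mers. The rank-based 8-mer E-score (-0.5 to 0.5) is the mean of the two arrays, parsed with a custom Python script.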

Row | Sequence | PBM 8-mer E-score
1 | ATTTTTTG | 0.116
2 | GGGTAGGA | -0.2
3 | CTAAAGGA | -0.0979
4 | CCGAACGG | -0.229
5 | CTCCACAA | -0.045
6 | ATAAGTCG | 0.183
7 | AACCCTCC | -0.222
8 | AGTGGCAA | -0.0346
9 | CACGCTCA | -0.177
10 | AACGTTGG | -0.094
11 | AGGAGACT | -0.214
12 | GCGGATAC | -0.123
13 | ATTGGTCC | -0.12
14 | CACCAAGA | -0.0628
15 | ATGGCGGA | -0.168
16 | CGTGCGCC | -0.27
17 | ATGTGCGA | 0.0665
18 | GTAGGCAA | -0.171
19 | AGAGGCTA | -0.159
20 | GTTCCTCA | -0.108
21 | AGCAATAG | 0.125
22 | AACATACA | 0.36
23 | CGGCTTAA | 0.0662
24 | ACCGTGCG | -0.0363
25 | CCCCACAG | -0.247

Row | Sequence | PBM 8-mer E-score
26 | GATCTACC | -0.179
27 | ACGTCGTG | -0.174
28 | CATTCTAC | -0.00107
29 | AACGACTT | 0.133
30 | CTTAGAAG | 0.0923
31 | AGCGTATG | -0.0614
32 | GACTCCTA | -0.164
33 | AGCATCGC | -0.152
34 | AAACGTTG | 0.0321
35 | CCCGGGTA | -0.242
36 | CAGTCATG | -0.105
37 | CAATACTA | 0.172
38 | AACCCTGC | -0.0713
39 | ACAATCCT | 0.0627
40 | CACATATG | 0.196
41 | ATGTGTCA | 0.135
42 | CTGGCTAC | -0.112
43 | CGGGCTGC | -0.217
44 | GATTTATA | 0.398
45 | AATAATCC | 0.26
46 | GTACCTAA | 0.00303
47 | ACCCGCCC | 0.0308
48 | AACTCTGG | 0.05
49 | CGTAGCTA | -0.101
50 | ATTGCTGG | 0.05

Row | Sequence | PBM 8-mer E-score
51 | ACGTCTTG | -0.173
52 | TATCCACA | 0.132
53 | CTATGGAC | -0.203
54 | AGTTTCCA | 0.0701
55 | ATCGCTTA | 0.0374
56 | GACGGATA | -0.0625
57 | AGATTCGG | -0.199
58 | AGCACATC | -0.127
59 | CGGGGGAG | -0.241
60 | TGCACTAA | 0.122
61 | ACTATTGA | 0.254
62 | GAGTATGA | 0.041
63 | AGTGGATA | 0.0913
64 | TCCGATAA | 0.0217
65 | AGACGGGG | -0.261
66 | GGCGAAGA | -0.123
67 | CTGAATAA | 0.226
68 | TAATTATA | 0.462
69 | CACGGTAG | -0.114
70 | ACCACTTG | 0.0527
71 | CAAGGATA | 0.0575
72 | CCAGCTTC | -0.327
73 | CGCACTAC | 0.0544
74 | CCCCTACG | -0.245
75 | CCCAAAAC | -0.178

Row | Sequence | PBM 8-mer E-score
76 | AGCCCCTC | -0.345
77 | CATTATGA | 0.214
78 | CACTAGTG | 0.0114
79 | GTCGTTAA | 0.0615
80 | CTTCCATC | -0.132
81 | GATCTTGC | 0.0159
82 | CGACCAGA | -0.0821
83 | ATCAGTTG | 0.0552
84 | AAGCGCGA | -0.0717
85 | GACATAGC | -0.277
86 | ATCGCACG | -0.00549
87 | GAGCGATC | -0.187
88 | TCGGCAAA | -0.0307
89 | AATAGACT | 0.194
90 | ACTCTCCC | -0.09
91 | ACCAAGGA | -0.224
92 | ATCGGGGC | -0.228
93 | CAGTACTA | 0.148
94 | CCGTGTAC | -0.053
95 | ATAACCCC | -0.0667
96 | ACATGAGT | 0.0118
97 | ACTTGAGC | -0.0597
98 | GATTTTAC | 0.175
99 | GTCGTGGA | 0.039
100 | AATTCCTC | 0.0211

Row | Sequence | PBM 8-mer E-score
101 | CCTATATC | 0.0838
102 | TCTGCGCA | -0.00775
103 | CTCATAAG | -0.122
104 | AGAGGTAC | -0.211
105 | ACAAGACC | -0.123
106 | AAGTAGAA | 0.147
107 | ACCAGGAG | -0.239
108 | CGAAATAG | 0.122
109 | CTCGAAGC | -0.235
110 | ATATAGTA | 0.399
111 | GCCGCGAA | -0.168
112 | CTAATAGA | 0.184
113 | GACGAAGC | -0.298
114 | GGAACGAC | -0.175
115 | CATCCCCC | -0.266
116 | CGTCCGAC | -0.213
117 | CATATTGA | 0.264
118 | AGCCCGGA | -0.201
119 | CGGTGCTA | -0.21
120 | CATCTAAC | 0.163
121 | CAAACGCA | -0.107
122 | CATTGGAG | -0.146
123 | AATGACTC | 0.0269
124 | GTAACTAA | 0.303
125 | CGGGTGCA | -0.19

Row | Sequence | PBM 8-mer E-score
126 | CAGTGGGC | -0.254
127 | CAATGGCC | -0.244
128 | GACATCAC | -0.218
129 | CCCCTGCA | -0.3
130 | CTCTGTCC | -0.159
131 | CATCACGA | -0.161
132 | ATACATTC | 0.304
133 | CTAGGCAA | -0.111
134 | GACTTGCC | -0.133
135 | AATGACAG | 0.0142
136 | ACAAGAGA | 0.105
137 | ACTTCCTA | -0.0421
138 | CGTTAGAA | 0.0275
139 | GCAGCACC | -0.0878
140 | ACACTAAA | 0.291
141 | AGCGCGTC | -0.087
142 | AATGTCGT | 0.00353
143 | GGCCGCAA | -0.302
144 | CGAACGTA | -0.0637
145 | CCATGTCC | -0.145
146 | CTGGGTCC | -0.306
147 | AGAGACAC | 0.00422
148 | ACGTAAAT | 0.241
149 | GCGAACCC | -0.157
150 | AGAAAACT | 0.0299

Row | Sequence | PBM 8-mer E-score
151 | ACGGACCC | -0.151
152 | ACCGATCG | -0.178
153 | AGTCATAT | 0.179
154 | CGACAGGA | -0.217
155 | AAGCTTAG | -0.0258
156 | TCTGAGCA | -0.179
157 | ACCCTATC | -0.105
158 | GAGACGTA | -0.125
159 | ATTTGGAG | -0.0776
160 | ACATTAAA | 0.359
161 | CCTGTATA | 0.139
162 | CGTACTCC | -0.275
163 | CCTATTTC | 0.0116
164 | AGGGATTG | -0.0323
165 | GCGCGGTA | -0.012
166 | ACACTACC | 0.0946
167 | TACCTCCA | -0.0216
168 | AGTGCTAA | 0.0869
169 | GTCAGCCA | -0.276
170 | AACCTTAA | 0.113
171 | GGGGCTAA | -0.105
172 | GGGTGCTA | -0.16

Reference: the supplement of paper PMC4466236
